Experimental data reported in PubChem BioAssay AID1466 (National Center for Advancing Translational Sciences (NCATS), 2008).
Out of some 200,000 compounds screened, about 10 (0.005%) were called active. This list was built around the results that the source calls inconclusive (neither active nor inactive); the mix of calls is not that of the screen. Calls follow the shape of the dose curve; as a rule, active = well fitted inhibition curve with a large enough effect; inconclusive = small, poorly fitted or top-dose-only effect, or effect the other way, or another doubt; inactive = no such curve, though single readings can be large or run the other way. Potencies of inconclusive entries are doubtful fits and often do not repeat.
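For activity change, negative = inhibition in this document: plate controls were uninhibited enzyme wells for no effect and no-enzyme background for full effect.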
Potency is read from the fitted curve at half-maximal effect; tags tell the direction and shape of the fitted curve.

What follows are molecules tested against Lysosomal alpha-glucosidase (Homo sapiens) (UniProt P10253) (assay: qHTS Assay for Inhibitors of Human alpha-Glucosidase as a Potential Chaperone Treatment of Pompe Disease). Settings: purified human GAA, 4-MU-alpha-glucoside fluorescence; activity change, negative = inhibition: at 76.9 µM (top of the series) unless noted.
Outline: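 qHTS format, compound range up to 77 uM. Human lysosomal enzyme at 4 nM, 400 uM 4-MU glucoside substrate, pH 5.0, 20 min room temperature; fluorescence after alkaline stop gives activity normalized to controls.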
`CNC(=O)CSc1nnc(-c2cccnc2)n1-c1ccc(C)cc1` was tested, and the activity change, negative = inhibition was inconclusive: 18.3% [activator]. In the case of `CC1=C(C(=O)OCCOC(C)C)C(c2cc3c(cc2Br)OCO3)CC(=O)N1` (configuration not stated), the Potency is reported as inconclusive: 50.1 µM [inhibitor, single point]. For `Cn1cccc1Cc1nnc(SCC(=O)NCCc2ccccc2)n1-c1ccc(F)cc1`, the Potency was inconclusive: 35.5 µM [inhibitor, single point]. With `COc1cc(CNc2ccc3[nH]c(=O)[nH]c3c2)ccc1OCC(=O)NC(C)(C)C` the “activity change, negative = inhibition” value was inactive: -3.27%. In the case of `Cc1sc(N/N=C/c2ccco2)nc1-c1ccccc1`, the Potency is reported as inconclusive: 2.82 µM [inhibitor, partial curve]. In the case of `N#Cc1cc(Sc2ccccn2)c(Sc2ccccn2)cc1C#N`, the Potency is reported as inconclusive: 56.2 µM [inhibitor, single point]. In the case of `O=C(O)/C=C/C(=O)Nc1ccc(OC(F)(F)F)cc1Br`, the Potency is reported as inconclusive: 0.178 µM [inhibitor, full curve, poor fit]. With `COc1ccc(S(=O)(=O)N2CCC(NC(=O)N3CCOCC3)CC2)cc1` the activity change, negative = inhibition was inconclusive: -15.7% [inhibitor]. For `CCCCN(CC)S(=O)(=O)c1ccc(C(=O)N=c2sc3cc(NC(C)=O)ccc3n2C)cc1`, the Potency was inconclusive: 15.8 µM [activator, partial curve]. In the case of `COc1ccc2oc(C)c(C(N)=O)c2c1`, the activity change, negative = inhibition is reported as inconclusive: -2.37% [inhibitor] [at 15.4 µM]. With `COC(=O)c1cc2cc(Cl)ccc2nc1SC` the activity change, negative = inhibition was inconclusive: -15.4% [inhibitor]. In the case of `CCN(CC)S(=O)(=O)c1ccc(C2CNC(=O)C2)cc1` (configuration not stated), the Potency is reported as inconclusive: 1.26 µM [inhibitor, full curve, poor fit]. For `CC(=O)NC(Nc1c(C)n(C)n(-c2ccccc2)c1=O)C(Cl)(Cl)Cl` (configuration not stated), the Potency was inconclusive: 5.62 µM [inhibitor, single point]. In the case of `Cc1ccc(-c2cc(-c3n[nH]c(=S)n3C)c3ccccc3n2)cc1`, the Potency is reported as inconclusive: 44.7 µM [inhibitor, single point]. With `Cc1ccc(C(C)C)c(OCCNC(=S)Nc2cccc3ccccc23)c1` the Potency was inconclusive: 31.6 µM [inhibitor, single point]. For `S=C(c1ccccc1)N(c1ccccc1)c1ccccc1`, the Potency was inconclusive: 5.62 µM [inhibitor, single point]. In the case of `CCCc1cc2c(=O)c(-c3ccc4c(c3)OCCO4)coc2cc1OS(C)(=O)=O`, the Potency is reported as inconclusive: 11.2 µM [inhibitor, single point]. `N#Cc1cccnc1Nc1ccc(Cl)cc1` was tested, and the activity change, negative = inhibition was inconclusive: 20.7% [activator]. In the case of `CC(=O)Nc1ccc(S(=O)(=O)N2CCN(c3cc4c(cc3[N+](=O)[O-])n(C)c(=O)n4C)CC2)cc1`, the Potency is reported as inconclusive: 44.7 µM [inhibitor, partial curve]. For `Cc1cccc(-n2cc(C#N)c(=O)[nH]c2=O)n1`, the Potency was inconclusive: 2.82 µM [inhibitor, full curve, poor fit]. In the case of `CC(=O)NC(=S)Nc1ccc2oc(=O)ccc2c1`, the Potency is reported as inconclusive: 0.178 µM [inhibitor, full curve, poor fit]. In the case of `O=C(N/N=C/c1cn(Cc2ccccc2)c2ccccc12)c1ccncc1`, the activity change, negative = inhibition is reported as inconclusive: -15.4% [inhibitor]. In the case of `CC1CCN(C(=S)Nc2ccc3nc4n(c(=O)c3c2)CCCCC4)CC1`, the Potency is reported as inconclusive: 31.6 µM [inhibitor, partial curve]. In the case of `CCOc1ccc(-c2nc(-c3ccccc3C)no2)cc1`, the Potency is reported as inconclusive: 15.8 µM [inhibitor, partial curve]. `CC1(C)CC(=O)c2cc(OCC(=O)N3CCOCC3)ccc2O1` was tested, and the Potency was inconclusive: 35.5 µM [activator, single point]. In the case of `CCN1CCN(CC(=O)Nc2cccc(C)c2C)C(=O)C1=O`, the “activity change, negative = inhibition” value is reported as inactive: 0.684%. `O=C(CSCc1ccc(Cl)cc1)N/N=C/c1c(Cl)cccc1Cl` was tested, and the “activity change, negative = inhibition” value was inactive: -3.11%. In the case of `CCN(CC)S(=O)(=O)c1cc(NC(=O)CSc2nc3c(cc2C#N)C(=O)CC(C)(C)C3)ccc1C`, the Potency is reported as inconclusive: 0.282 µM [inhibitor, full curve]. `CCOc1cc(/C=C/C(=O)O)ccc1OCCO` was tested, and the Potency was inconclusive: 1 µM [activator, full curve, poor fit]. `COc1ccc(OC)c(NC(=O)c2c(NC(=O)CCC(=O)O)sc3c2CCCCC3)c1` was tested, and the Potency was inconclusive: 50.1 µM [inhibitor, single point]. In the case of `O=S1(=O)CC(O)C(Nc2ccccc2Cl)C1` (configuration not stated), the activity change, negative = inhibition is reported as inconclusive: -16.1% [inhibitor]. `CC1CCC2C(=O)N(c3ccccc3OC(=O)c3ccccc3F)C(=O)C2C1` (configuration not stated) was tested, and the activity change, negative = inhibition was inconclusive: 12.2% [activator]. With `Fc1ccc(N2N=C(c3cccs3)CC2c2ccco2)c(F)c1` (configuration not stated) the Potency was inconclusive: 31.6 µM [activator, partial curve]. For `O=C(NCC1CCCO1)/C(=C\c1ccccc1)NC(=O)c1ccccc1` (configuration not stated), the activity change, negative = inhibition was inconclusive: 16% [activator]. In the case of `CCCOc1ccc(C(=O)NCCCn2ccnc2)cc1`, the Potency is reported as inconclusive: 11.2 µM [inhibitor, single point]. For `O=c1c(Cc2ccccc2)c(O)nc2n1CCS2`, the Potency was inconclusive: 6.31 µM [inhibitor, single point]. For `COc1ccc(OCc2n[nH]c(=S)n2-c2ccc(C)cc2)cc1`, the activity change, negative = inhibition was inconclusive: 16.2% [activator]. For `COc1ccc(N2C(=O)C3CCCCC3C2=O)cc1NC(=O)c1ccccc1` (configuration not stated), the activity change, negative = inhibition was inconclusive: 16.9% [activator]. In the case of `CC(=O)C1=NN(c2ccc(Cl)cc2)C(c2ccc3c(c2)OCO3)N(C(C)=O)N1C` (configuration not stated), the Potency is reported as inconclusive: 50.1 µM [inhibitor, single point]. In the case of `CN1CCN(CC(=O)N2CCn3c4c(c5cc(C6CCCCC6)ccc53)CCCC42)CC1` (configuration not stated), the Potency is reported as inconclusive: 31.6 µM [inhibitor, single point]. `O=C(Nc1nccs1)C1CCN(S(=O)(=O)c2ccc3c(c2)OCCCO3)CC1` was tested, and the Potency was inconclusive: 22.4 µM [inhibitor, partial curve]. In the case of `Cc1cccc(C)c1NC(=O)CN(C)CC(=O)Nc1ccccc1Oc1ccccc1`, the Potency is reported as inconclusive: 39.8 µM [inhibitor, partial curve].
